Experimental data published in PubChem BioAssay (NCATS).
“And” between values parts separate entries of the source, which are not always exact repeats. Identical values can stand only once. This list was built around the results that the source calls inconclusive (neither active nor inactive); the mix of calls is not that of the screen. A potency beside an inconclusive call is a rough fit, not a confirmed value. The source made the active and inactive calls. The call rests on the fitted dose curve; in most records, active means well fitted inhibition curve with a large enough effect; inconclusive means small, poorly fitted or top-dose-only effect; inactive means flat fitted curve, though single readings scatter.
Potency means the concentration at half of the fitted maximal effect; tags describe the fitted curve by direction and shape.

Each compound was assayed on Zika virus NS2B-NS3 protease (assay: Primary screen GU AMC qHTS for Zika virus inhibitors (AID 1347154; further: nearly all actives have a fitted effect of over 70% in size)). Details: Zika NS2B-NS3 unlinked protease, AMC fluorogenic substrate; series mostly up to 54.1 µM.
Source text: Avindra Nath, Ph.D., National Institute of Neurological Disorders and Stroke (NINDS), Bethesda, MD
Radhakrishnan Padmanabhan, Ph.D., Georgetown University (GU), Washington D.C.
Zika Virus causes congenital defects, including microcephaly and is associated with Guillain-Barre syndrome, eningoencephalitis and myelitis in infected adult. […] Using a target-based approach, we hope to establish a screening paradigm to uncover novel, cell-active NS2B-NS3 protease (Zika Virus) specific inhibitors from NCATS' collection of small molecules using qHTS.
Early Translation Branch (ETB)
National Center for Advancing Translational Sciences (NCATS), Rockville, MD
National Institute of Health (NIH), Bethesda, Maryland
Padmanabhan lab provided the NS2B hydrophilic domain and NS3 protease domain in a noncovalent complex used for the unlinked assay. Control compound aprotinin is obtained from Thermo Scientific (#78432; Waltham, Massachusetts). NS2B-NS3 AMC substrate (Bz-Nle-Lys-Arg-Arg-AMC; Nle-KRR-AMC) purchased from Bachem (#I-1995; Torrance, CA). Ac-VKTGKR-AMC purchased from Genscript or Bachem, Ac-FAAGKR-AMC purchased from Genscript, Ac-GLVKRR-AMC purchased from Genscript, Ac-LKKR-AMC purchased from Genscript.
GU AMC unlinked NS2B-NS3 protease qHTS protocol
Briefly, 3 microL of Zika virus unlinked NS2B-NS3 protease (25 nM for linked final concentration), in assay buffer (10 mM Tris-HCl pH 8.0 with 0.01% Tween 20) was dispensed into a 1,536-well solid-bottom black plate (Greiner Bio One, Monroe, NC). […] Plates were then read immediately on a ViewLux High-throughput CCD imager (PerkinElmer, Waltham, MA) equipped with standard UV fluorescence optics (340(30) nm excitation, 450(20) nm emission) then incubated (room temperature, protected from light) for 15 minutes (~20% conversion). The change in fluorescence intensity over the 15-minute reaction period was normalized against no-inhibitor and no-enzyme controls and the resulting percent inhibition data were fitted to a 4-parameter Hill equation. Aprotinin was used as the intraplate control.
With `CCCCCC[C@H]1C(=O)O[C@H](C)[C@H](NC(=O)c2cccc(NC=O)c2O)C(=O)O[C@@H](C)[C@@H]1OC(=O)CC(C)C` the Potency was inconclusive: 4.82 µM [inhibitor, full curve]. For `CC(Cc1ccccc1)NCCn1cnc2c1c(=O)n(C)c(=O)n2C` (stereo not given), the Potency was “inactive”. `Cc1ccc(-c2nc3ccc(C)cn3c2CC(=O)N(C)C)cc1` was tested, and the Potency was active: 31.6 µM. In the case of `CCCN(CCC)C(=O)Cc1c(-c2ccc(Cl)cc2)nc2ccc(Cl)cn12`, the Potency is reported as inconclusive: 28.7 µM [inhibitor, partial curve]. `CCN(CC)C(=O)N[C@@H]1C=C2c3cccc4[nH]cc(c34)C[C@@H]2N(C)C1` was tested, and the Potency was inconclusive: 31.6 µM [inhibitor, partial curve]. With `COc1ccc2c(c[n+](C)c3c4cc5c(cc4ccc23)OCO5)c1OC` the Potency was inconclusive: 27.1 µM [inhibitor, single point] and inconclusive: 35.5 µM [inhibitor, partial curve] and inconclusive: 26.7 µM [inhibitor, single point]. For `CC(C)(C)CC(C)(C)c1ccc(O)cc1`, the Potency was inconclusive: 15.8 µM [inhibitor, full curve] and inconclusive: 7.94 µM [inhibitor, partial curve]. `CN1[C@H]2CC(O)C[C@H]1[C@H]1O[C@H]12` (stereo not given in full) was tested, and the Potency was inconclusive: 17.1 µM [inhibitor, partial curve]. For `N#C[C@H](O[C@@H]1O[C@H](CO[C@@H]2O[C@H](CO)[C@H](O)[C@H](O)[C@H]2O)[C@H](O)[C@H](O)[C@H]1O)c1ccccc1`, the Potency was inconclusive: 21.5 µM [inhibitor, partial curve]. `Clc1ccc(COC(Cn2ccnc2)c2ccc(Cl)cc2Cl)cc1` (stereo not given) was tested, and the Potency was inconclusive: 18.1 µM [inhibitor, partial curve] and inconclusive: 24.1 µM [inhibitor, partial curve]. `CC[C@@]1(O)C(=O)OCc2c1cc1n(c2=O)Cc2cc3ccccc3nc2-1` was tested, and the Potency was inconclusive: 2.12 µM [inhibitor, partial curve, poor fit] and active: 2.12 µM. In the case of `C[C@@H]1[C@@H](CC(C[C@H]2O[C@@H]3O[C@]4(C)CC[C@@H]5[C@H](C)CC[C@@H]([C@H]2C)[C@@]35OO4)C[S+](=O)([O-])c2ccc(COC(=O)N(C)C)cc2)O[C@@H]2O[C@]3(C)CC[C@H]4[C@H](C)CC[C@@H]1[C@@]24OO3` (stereo not given in full), the Potency is reported as “inactive”. `CCCCC/C=C\C/C=C\C/C=C\C/C=C\CCCC(=O)NCC(=O)O` was tested, and the Potency was active: 25.6 µM. With `Cc1nnc2n1-c1sc(CCc3ccc(CC(C)C)cc3)cc1C(c1ccccc1Cl)=NC2C` (stereo not given) the Potency was inconclusive: 14.4 µM [inhibitor, partial curve]. `CC1(C)C(C=C(Cl)Cl)C1C(=O)OC(C#N)c1cccc(Oc2ccccc2)c1` (stereo not given) was tested, and the Potency was “inactive”. `CO[C@H]1CCC(O[C@H]2C[C@H]([C@]3(C)CC[C@]4(C[C@H](O)[C@@H](C)[C@@H]([C@@H](C)C=C(C)C(=O)[C@H](C)C[C@H](C)C(=O)O)O4)O3)O[C@]3(O[C@@H]([C@H]4O[C@@](O)(CO)[C@H](C)C[C@H]4C)C[C@H]3C)[C@H]2C)O[C@H]1C` (stereo not given in full) was tested, and the Potency was “inactive”. For `O=C(O)C(=O)c1cn(Cc2ccccc2)c2ccc(-c3ccc(OC(F)(F)F)cc3)cc12`, the Potency was active: 6.07 µM. `O=C(O)c1nn(Cc2ccc(Cl)cc2Cl)c2ccccc12` was tested, and the Potency was inconclusive: 16.8 µM [inhibitor, partial curve, poor fit]. `CC[n+]1c(-c2ccccc2)c2cc(N)ccc2c2ccc(N)cc21` was tested, and the Potency was inconclusive: 36.1 µM [inhibitor, partial curve]. For `C[C@]12CC[C@H]3[C@@H](CCC4=CC(=O)CC[C@@H]43)[C@@H]1CC[C@@H]2OC(=O)CCc1ccccc1`, the Potency was inconclusive: 28.7 µM [inhibitor, partial curve, poor fit]. With `CCCCCCCCCCCCCCCC[N+](C)(C)C` the Potency was inconclusive: 36.1 µM [inhibitor, partial curve, poor fit]. In the case of `CO[C@]12CC[C@@]3(C[C@@H]1[C@](C)(O)C(C)(C)C)[C@@H]1Cc4ccc(O)c5c4[C@@]3(CCN1CC1CC1)[C@H]2O5`, the Potency is reported as inconclusive: 6.31 µM [inhibitor, full curve, poor fit]. `c1cc2ccc3cccc4ccc(c1)c2c34` was tested, and the Potency was active: 17.3 µM. With `CC(C(=O)c1ccccc1)N(C)C` (stereo not given) the Potency was inconclusive: 11.4 µM [inhibitor, single point]. With `Oc1ccc([C@H]2CNCc3c2ccc(O)c3O)cc1O` the Potency was active: 10.2 µM. In the case of `CC#C[C@]1(O)CC[C@H]2[C@@H]3C[C@H](C)C4=CC(=O)CC[C@]4(C)[C@H]3CC[C@@]21C`, the Potency is reported as “inactive”. For `Nc1ccc(N=Nc2ccccc2)cc1`, the Potency was inconclusive: 39.8 µM [inhibitor, partial curve, poor fit]. With `O=c1c(C2CC(c3ccc(-c4ccc(Br)cc4)cc3)Cc3ccccc32)c(O)sc2ccccc12` (stereo not given) the Potency was inconclusive: 15.8 µM [inhibitor, partial curve]. For `Clc1ccc(CO/N=C(\Cn2ccnc2)c2ccc(Cl)cc2Cl)c(Cl)c1`, the Potency was inconclusive: 32.2 µM [inhibitor, single point]. In the case of `O=C(NC(=O)c1c(F)cccc1F)Nc1cc(Cl)c(OC(F)(F)C(F)C(F)(F)F)cc1Cl` (stereo not given), the Potency is reported as inconclusive: 28.7 µM [inhibitor, partial curve]. In the case of `CC(=O)N(C)c1cccc(-c2ccnc3c(C(=O)c4cccs4)cnn23)c1`, the Potency is reported as active: 21.5 µM. With `N[C@@H](Cc1ccc(Oc2cc(I)c(O)c(I)c2)c(I)c1)C(=O)O` the Potency was inconclusive: 28.7 µM [inhibitor, partial curve]. `CCC(C)(C)c1ccc(O)cc1` was tested, and the Potency was inconclusive: 0.0708 µM [inhibitor, full curve, poor fit]. For `Cc1cc(SCc2sc(-c3ccc(C(F)(F)F)c(F)c3)nc2C)ccc1OCC(=O)O`, the Potency was active: 7.64 µM and inconclusive: 18.9 µM [inhibitor, partial curve]. `CCN(CCO)CCn1c(Cc2ccccc2)nc2c1c(=O)n(C)c(=O)n2C` was tested, and the Potency was “inactive”. `CS(=O)(=O)c1ccc(C(=O)C2C(=O)CCCC2=O)c([N+](=O)[O-])c1` was tested, and the Potency was inconclusive: 53.1 µM [inhibitor, partial curve]. With `CC(=O)Nc1cc([As](=O)(O)O)ccc1O` the Potency was “inactive”. `O=c1oc2ccccc2c(O)c1C(CC(O)c1ccc(-c2ccc(Br)cc2)cc1)c1ccccc1` (stereo not given) was tested, and the Potency was active: 14.1 µM. In the case of `O=c1[nH]c2ccccc2n1C1CCNCC1`, the Potency is reported as inconclusive: 28.2 µM [inhibitor, partial curve, poor fit]. `c1cc2c(c(N3CCNCC3)c1)OCCO2` was tested, and the Potency was “inactive”.
